Experimental data published in PubChem BioAssay AID686970 (National Center for Advancing Translational Sciences (NCATS), 2013).
Out of some 360,000 compounds screened, about 6,000 (1.7%) were called active. The shares of active, inactive and inconclusive entries below differ from those in the screen. Calls come from the whole dose curve; as a rule, active = well fitted cell-killing curve with a large enough effect; inconclusive = small, poorly fitted or top-dose-only effect, or effect the other way; inactive = flat fitted curve, though single readings scatter. Potencies of inconclusive entries are left out as doubtful fits.

assay: qHTS for induction of synthetic lethality in tumor cells producing 2HG: qHTS for the HT-1080-NT fibrosarcoma cell line; conditions: HT-1080-NT fibrosarcoma viability, CellTiter-Glo ATP luminescence, 48 h; activity, negative = less viability: at 46.1 µM (top of the series) unless noted;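 note: NT is the 2HG producing partner of a matched IDH1 knockdown line; nearly all actives have a fitted effect of over 55% in size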;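 for activity, negative = less viability: 0% = DMSO-treated cells and -100% = media-only wells without cells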
Procedure, shortened: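 Toxicity toward the 2HG-producing NT line was scored as %Activity, normalised to DMSO and no-cell wells, from CellTiter-Glo luminescence after 48 hours' treatment.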
Potency is the fitted concentration of half-maximal effect; tags give direction and shape of the fitted curve.

Row | SMILES | Potency | activity, negative = less viability
1 | CC(C)NC(=O)C1C(c2ccccc2)=Nc2ccccc2N1C(=O)c1cc(Cl)cc(Cl)c1 (stereo not given) | active: 16.4 µM | 
2 | COC(=O)C(CCSC)NC(=O)c1cn(-c2ccc(OC)cc2)c(=O)c2ccccc12 (stereo not given) |  | inactive: -1.93%
3 | COc1cccc(CNC(=O)COC(=O)c2nc(Cl)c(Cl)c(Cl)c2Cl)c1 | inconclusive [cytotoxic, single point] | 
4 | CCC1(c2ccc(F)cc2)NC(=O)N(CC(=O)N2CCc3ccccc32)C1=O (stereo not given) |  | inactive: -8.88% [at 9.24 µM]
5 | O=C(/C=C/Sc1ncn[nH]1)c1ccc(Cl)cc1 | inconclusive [cytotoxic, single point] | 
6 | Cc1cc2c(cc1C)-n1nnnc1C(N1CCCC1)C(=O)N2 (stereo not given) |  | inactive: 11.6%
7 | O=C(Nc1ccncc1)c1cc(-c2cccc(Br)c2)nc2ccccc12 | inconclusive [cytotoxic, single point] | 
8 | CC(=O)[C@@H]1[C@@H](C(=O)c2ccccc2)[C@]2(C(=O)Nc3ccccc32)[C@H]2C=Cc3cc(F)ccc3N12 |  | inactive: -24.9%
9 | c1ccc(-c2nnc(SCC3CCCCO3)nc2-c2ccccc2)cc1 (stereo not given) |  | inactive: -0.647%
10 | CC(C)(C)OC(=O)N1C(=O)[C@](OC(=O)c2ccccc2)(c2ccc(F)cc2)c2ccccc21 | inconclusive [cytotoxic, single point] | 
11 | COc1cccc(OC)c1OCCNCC1CSc2ccccc2O1 (stereo not given) | inconclusive [cytotoxic, single point] | 
12 | CC1CCC(C(=O)NNC(=O)c2cc(-c3ccco3)[nH]n2)CC1 (stereo not given) |  | inactive: 18.3%
13 | CCOC(=O)Cc1cc(-c2ccc(OC)cc2)nc2ccc3ccccc3c12 |  | inactive: -2.28%
14 | CN(C)C(=O)CCc1ccc2c3c([nH]c2c1)[C@]1(CCC2CCCC2)[C@@H](C(=O)N2CCOCC2)C[C@H](CC(=O)NCCCn2ccnc2)C(=O)N1CC3 |  | inactive: -2.12%
15 | Clc1ccc(CNCCCSc2ncccn2)cc1 |  | inconclusive: 0.297%
16 | N/C(=N\OC(=O)c1ccc2ccccc2c1)c1ccccc1Cl | inconclusive [cytotoxic, single point] | 
17 | COc1cc(OC)cc(-c2nc3ccccc3c(=O)n2OC(=O)c2ccccc2C)c1 | inconclusive [cytotoxic, single point] | 
18 | COc1ccc(C2c3ccc4ccccc4c3Oc3ncn(CCCO)c(=N)c32)cc1OC (stereo not given) | active: 7.31 µM | 
19 | Cc1ccc(-c2cc(C(=O)N/N=C/c3ccc([N+](=O)[O-])o3)c3ccccc3n2)o1 | inconclusive [cytotoxic, partial curve] | 
20 | COc1ccc(C2c3ccc4ccccc4c3Oc3ncn(CCN4CCOCC4)c(=N)c32)cc1 (stereo not given) | inconclusive [cytotoxic, single point] | 
